PubChem BioAssay AID686979 (National Center for Advancing Translational Sciences (NCATS), 2013)
Among all 420,000 compounds or so, about 50,000 (12%) were called active. Inconclusive results, whose numbers are uncertain, are shown with a selection of clear calls. Calls follow the shape of the dose curve; as a rule, active = well fitted inhibition curve with a large enough effect; inconclusive = small, poorly fitted or top-dose-only effect; inactive = flat fitted curve, though single readings scatter. Potencies of inconclusive entries are left out as doubtful fits.

Experiment: qHTS for Inhibitors of human tyrosyl-DNA phosphodiesterase 1 (TDP1): qHTS in cells in presence of CPT; also: nearly all actives have a fitted effect of over 55% in size
Conditions: chicken DT40 Tdp1-/-;hTDP1 cells + 20 nM CPT, ATP luminescence, 48 h; activity change, negative = growth inhibition: at 46.2 µM (top of the series)
Method in brief: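 Cell growth measured by CellTiter-Glo luminescence after a minimum 48 h, 37 C compound exposure with 20 nM CPT in Tdp1-knockout DT40 cells stably expressing hTDP1, seeded 400/well; qHTS titration format.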
% is scaled to controls: 0 for no effect and ±100 for the full control effect; potency is read from the fitted curve at half-maximal effect; tags tell the direction and shape of the fitted curve.

SMILES | activity change, negative = growth inhibition | Potency
COc1ccc(-c2csc(N3CCSCC3)n2)cc1 | inactive: -4.54% | –
CCN(Cc1ccccc1)S(=O)(=O)c1ccc(F)c(C(=O)Nc2cc(C(F)(F)F)ccc2Cl)c1 | – | active: 16.4 µM
CN(C)CCNc1nc2c(c(=O)[nH]c(=O)n2C)n1CCOc1ccccc1 | – | inconclusive [inhibitor, partial curve]
COc1ccc(NC(=O)c2ccc(C)cc2)c[n+]1[O-] | inconclusive: 4.68% [inhibitor] | –
CC(C)c1ccc(N2C(=O)N(Cc3ccccc3Cl)c3ccccc3S2(=O)=O)cc1 | – | inconclusive [inhibitor, single point]
CCc1nc2c(OCCC3CCCCC3)cccn2c1N(C)C(=O)c1ccncc1 | – | active: 16.4 µM
CCC(=O)c1ccc(OCC(=O)NNC(=O)c2cc(C)oc2C)cc1 | inactive: -8.88% | –
COc1ccc(-c2nc3ccc(Cl)cn3c2Cc2ccsc2)cc1OC | – | inconclusive [inhibitor, single point]
COc1ccc(C2=NOC(COc3ccc4c(C)cc(=O)oc4c3)C2)c(OC)c1 (stereo not given) | – | active: 4.11 µM
COc1ccc(OC)c(NC(=O)CNC(c2ccccc2)c2ccccc2)c1 | – | inconclusive [inhibitor, single point]
Cc1ccc(CNC(=O)CSc2nc3ccccc3c(=O)n2CC2CCCO2)cc1 (stereo not given) | – | inconclusive [inhibitor, single point]
COc1cc(/C=C2/C(=N)N3N=C(CC(=O)N4CCOCC4)SC3=NC2=O)ccc1OCc1ccc(F)cc1 | inactive: -10.7% | –
CCOC(=O)C1CCCN(CC(O)COC(c2ccccc2)c2ccccc2)C1 (stereo not given) | inactive: 5.71% | –
O=C(CN1CCN(Cc2ccccc2)CC1)c1c[nH]c2ccccc12 | – | inconclusive [inhibitor, single point]
Cc1cccc(NC(=O)c2ccc(NC(=O)CC3SC(N4CCCC4)=NC3=O)cc2)n1 (stereo not given) | – | inconclusive [inhibitor, single point]
O=C(c1ccc(Cl)c(S(=O)(=O)N2CCc3ccccc32)c1)N1CCN(c2ccccc2O)CC1 | – | inconclusive [inhibitor, single point]
S=C(NCCC1=CCCCC1)Nc1ccccc1 | – | active: 16.4 µM
Clc1nc(CN2CCCCC2)nc2sc3c(c12)CCC3 | – | inconclusive [inhibitor, single point]
Cc1ccc(C)c(OCc2cc(C(=O)N3CCN(c4ccccc4)CC3)no2)c1 | – | inconclusive [inhibitor, single point]
CCOC(=O)c1c(C)[nH]c(C(=O)OC(C)C(=O)NCc2ccccc2)c1C (stereo not given) | – | inconclusive [inhibitor, single point]
CCCCNS(=O)(=O)c1ccc2nc(SCC(=O)Nc3ccccc3Cl)[nH]c2c1 | – | inconclusive [inhibitor, single point]
Cc1nn(-c2ccc(F)cc2)c(C)c1NS(=O)(=O)c1ccc2ccccc2c1 | – | inconclusive [inhibitor, single point]
Cc1cc(C)c2nc(NC(=O)c3cc(C)on3)sc2c1 | inconclusive: -36.4% [inhibitor] | –
Cc1n[nH]c(=O)c2c(NC(=O)CSc3nc4ccccc4c(=O)n3C(C)C)oc(C)c12 | – | inconclusive [inhibitor, single point]

SMILES | activity change, negative = growth inhibition | Potency
CN(/N=C/c1cccc(Br)c1)C1=NS(=O)(=O)c2ccccc21 | – | inconclusive [inhibitor, single point]
COc1ccc(/C=C2/CSC/C(=C/c3ccc(OC)c(OC)c3)C2=O)cc1OC | – | active: 4.11 µM
CCN(CC)CCNC(=O)c1ccc(NC(=O)c2ccccc2-c2ccc(C(F)(F)F)cc2)cc1 | – | active: 18.4 µM
CC(OC(=O)Cc1n[nH]c(=O)c2ccccc12)C(=O)Nc1ccc(Cl)cn1 (stereo not given) | – | inconclusive [inhibitor, full curve, poor fit]
Cn1c(=O)[nH]c(=O)c2c1nc(N1CCOCC1)n2CCSc1nnnn1-c1ccccc1 | inactive: -9.66% | –
COc1cccc(/C=N/N2CCN(C3c4ccccc4-c4ccccc43)CC2)c1O | – | inconclusive [inhibitor, single point]
Cc1ccc2[nH]cc(C(=O)CN3CCOCC3)c2c1 | inconclusive: -31.6% [inhibitor] | –
CC(C)(C)[C@H]1CCC(=O)N([C@H](CN=[N+]=[N-])Cc2ccccc2)CC1 | – | active: 14.1 µM
c1cc(-c2cc3cc4c(cc3cn2)OCO4)cs1 | – | active: 14.6 µM
CCOC(=O)c1sc2c(c1C)C(c1cccs1)C1=C(CCCC1=O)N2 (stereo not given) | – | inconclusive [inhibitor, single point]
CN(CC1COc2ccccc2O1)C(=O)c1cccc(S(=O)(=O)N2CCCC2)c1 (stereo not given) | – | inconclusive [inhibitor, single point]
CCCCCCN1C[C@@H](O)[C@H](n2cc(C3CC3)nn2)C[C@@H]1c1ccc(C)cc1 | inactive: -19.8% | –
CC1(OC(=O)C2CCCC2)C(=O)C=C2C=C(c3ccsc3)N(Cc3ccc4c(c3)OCO4)C=C2C1=O (stereo not given) | – | inconclusive [inhibitor, partial curve, poor fit]
COC(=O)c1ccc([C@H]2Nc3ccc(S(=O)(=O)Nc4cccc(C)c4)cc3[C@H]3C=CC[C@H]32)cc1 | – | active: 1.84 µM
COc1cccc(OCC(O)CNC(=O)c2oc3c(C)c(C)ccc3c2C)c1 (stereo not given) | – | inconclusive [inhibitor, single point]
COC(=O)c1c(-c2ccccc2)c(-c2ccccc2)nn(C)c1=O | – | inconclusive [inhibitor, single point]
Cc1ccc(S(=O)(=O)N2C(c3ccc(Cl)c(Cl)c3)CC=C(C(=O)O)C2c2cccc(Cl)c2)cc1 (stereo not given) | – | inconclusive [inhibitor, single point]
Cc1cc(C(=O)COC(=O)[C@H](C)NC(=O)c2ccco2)c(C)n1Cc1ccco1 | inactive: 3.49% | –
CCCCOc1ccc(C(=O)N(Cc2ccco2)Cc2ccco2)cc1 | – | inconclusive [inhibitor, single point]
COc1ccccc1C1CC(=O)N(c2cccc(C(F)(F)F)c2)C2=C1C(=O)OC2 (stereo not given) | – | active: 8.2 µM
Cc1ccc(S(=O)(=O)N2CCOCC2)cc1NC(=O)CSc1ccccn1 | inconclusive: -34% [inhibitor] | –
Cc1ccc(NC(=O)CNc2cccc(S(=O)(=O)N3CCCCC3)c2)cc1F | – | inconclusive [inhibitor, single point]
CS(=O)(=O)c1ccc(NC(=O)CCCc2nc3ccccc3c(=O)[nH]2)cc1 | inactive: 1.49% | –
CC(NC(=O)C1CCC1)c1ccc(Cl)cc1 (stereo not given) | inactive: 7.17% | –

SMILES | activity change, negative = growth inhibition | Potency
CC1CCN2c3cc(Cl)ccc3CC3(C(=O)OC(C)(C)OC3=O)C2C1 (stereo not given) | inactive: -2.96% | –
C=CCn1c(SCC(=O)c2c(N)n(C)c(=O)n(C)c2=O)nc2sc(C)c(C)c2c1=O | inactive: -15.6% | –
COCc1cc(Sc2ccc(Cl)cc2Cl)nc(-c2ccccc2)n1 | – | inconclusive [inhibitor, single point]
COCCNC(=O)CCCn1c(SCc2ccccc2Cl)nc2c(sc3ccccc32)c1=O | – | inconclusive [inhibitor, partial curve]
Cc1c(-c2nnc(SCC(=O)Nc3ccc(Cl)cc3)o2)nnn1-c1ccc(F)cc1 | – | inconclusive [inhibitor, partial curve]
CCC1CCCCN1CCCNC(=O)Cn1cnc2sc(C)c(S(=O)(=O)N3CC(C)CC(C)C3)c2c1=O (stereo not given) | – | inconclusive [inhibitor, single point]
Cc1[nH]n(-c2ccccc2)c(=O)c1/C=N/Nc1nncc(-c2ccccc2)n1 | – | active: 1.03 µM
Cc1cccc(NC(=O)C2=C(O)c3ccccc3N(C)S2(=O)=O)c1 | – | inconclusive [inhibitor, single point]
CN1CCC(=NNc2ncnc3sc4c(c23)CCCC4)CC1 | – | active: 16.4 µM
O=C(COC(=O)/C=C/c1cccc(Br)c1)Nc1ccc(Cl)cn1 | inactive: -6.85% | –
Cc1cc(C(=O)NC(C)CCC(C)C)c2ccccc2n1 (stereo not given) | inactive: -2.76% | –
Cc1cc(CN2CCN(c3ccc(F)cc3)CC2)cs1 | – | inconclusive [inhibitor, single point]
CCN1CCSc2ccc(C(=O)NCc3ccccc3Br)cc21 | – | inconclusive [inhibitor, single point]
Cc1cccc(Cn2cnc3c(sc4nc(C)cc(C)c43)c2=O)c1 | inactive: -4.87% | –
CC(C)CN(C[C@@H](O)[C@H](Cc1ccccc1)NC(=O)O[C@@H]1CCOC1)S(=O)(=O)c1ccc(N)cc1 | – | inconclusive [inhibitor, single point]
CCOCCCNC(=O)CSc1nc2nc(C)c(Cc3ccccc3)c(C)n2n1 | inactive: 13.8% | –
CCn1c(COc2cccc3cccnc23)nnc1SCC(=O)OC | inactive: -0.427% | –
C=C1C(O)C[C@@H](C(C)C)N(CC(C)C)S1(=O)=O (stereo not given in full) | – | inconclusive [inhibitor, single point]
Cc1cc(=O)n(C(C)Cc2ccccc2)n1C(C)Cc1ccccc1 (stereo not given) | – | inconclusive [inhibitor, single point]
COc1ccccc1N(CC(=O)N/N=C/c1ccc(C(=O)O)cc1)S(=O)(=O)c1ccc(C)cc1 | inactive: 4.09% | –
CC1CC(C)CN(C(=O)c2cc(-c3ccccn3)nc3ccccc23)C1 (stereo not given) | – | inconclusive [inhibitor, single point]
Cc1cccc(CSCc2ccc(C(=O)NC(C)C)o2)c1 | – | inconclusive [inhibitor, single point]
